# Results published in paper PMC9911399, “Two distinct binding modes provide the RNA-binding protein RbFox with extraordinary sequence specificity”.
# Substitutions are numbered along the chain they refer to; changes in the protein carry UniProt numbers. This is one part of the list.
# B1: CCGGACC (DNA:RNA)
# RNA: GGGAGACCGGAAUUCAGAUUGUCCCCGGACCUUAAAUCCCGUCGUAGCCACCA
# DNA 1: CAATCTGAATTCCGGTCTCCC
# DNA 2: TGGTGGCTACGACGGGATT
# B2: CUGCUGU (DNA:RNA)
# RNA: B1 RNA with C26U, G28C, A29U, C30G, C31U
# DNA 1: CAATCTGAATTCCGGTCTCCC
# DNA 2: TGGTGGCTACGACGGGATT
# B3: CAAACAA (DNA:RNA)
# RNA: B1 RNA with C26A, G27A, G28A, A29C, C30A, C31A
# DNA 1: CAATCTGAATTCCGGTCTCCC
# DNA 2: TGGTGGCTACGACGGGATT
# B4: AUCACUA (DNA:RNA)
# RNA: GGGAGACCGGAAUUCAGAUUGUCCAUCACUAUUAAAUCCCGUCGUAGCCACCA
# DNA 1: CAATCTGAATTCCGGTCTCCC
# DNA 2: TGGTGGCTACGACGGGATT
# B5: UUCUAGG (DNA:RNA)
# RNA: B4 RNA with A25U, A28U, C29A, U30G, A31G
# DNA 1: CAATCTGAATTCCGGTCTCCC
# DNA 2: TGGTGGCTACGACGGGATT
# B6: AGUGAGA (DNA:RNA)
# RNA: B4 RNA with U26G, C27U, A28G, C29A, U30G
# DNA 1: CAATCTGAATTCCGGTCTCCC
# DNA 2: TGGTGGCTACGACGGGATT
# B7: AAAGCGU (DNA:RNA)
# RNA: B4 RNA with U26A, C27A, A28G, U30G, A31U
# DNA 1: CAATCTGAATTCCGGTCTCCC
# DNA 2: TGGTGGCTACGACGGGATT
# B8: CAUCCAC (DNA:RNA)
# RNA: B1 RNA with C26A, G27U, G28C, A29C, C30A
# DNA 1: CAATCTGAATTCCGGTCTCCC
# DNA 2: TGGTGGCTACGACGGGATT
# B9: GCUUACU (DNA:RNA)
# RNA: B1 RNA with C25G, G27U, G28U, C31U
# DNA 1: CAATCTGAATTCCGGTCTCCC
# DNA 2: TGGTGGCTACGACGGGATT
# B10: GAUAGUU (DNA:RNA)
# RNA: B4 RNA with A25G, U26A, C27U, C29G, A31U
# DNA 1: CAATCTGAATTCCGGTCTCCC
# DNA 2: TGGTGGCTACGACGGGATT
# B11: UGAAAAA (DNA:RNA)
# RNA: B4 RNA with A25U, U26G, C27A, C29A, U30A
# DNA 1: CAATCTGAATTCCGGTCTCCC
# DNA 2: TGGTGGCTACGACGGGATT
# B12: UCGAAUG (DNA:RNA)
# RNA: B1 RNA with C25U, G28A, C30U, C31G
# DNA 1: CAATCTGAATTCCGGTCTCCC
# DNA 2: TGGTGGCTACGACGGGATT
# B13: AACGCGC (DNA:RNA)
# RNA: B4 RNA with U26A, A28G, U30G, A31C
# DNA 1: CAATCTGAATTCCGGTCTCCC
# DNA 2: TGGTGGCTACGACGGGATT
# B14: CCGUGCU (DNA:RNA)
# RNA: B1 RNA with G28U, A29G, C31U
# DNA 1: CAATCTGAATTCCGGTCTCCC
# DNA 2: TGGTGGCTACGACGGGATT
# B15: AAGCGCG (DNA:RNA)
# RNA: B1 RNA with C25A, C26A, G28C, A29G, C31G
# DNA 1: CAATCTGAATTCCGGTCTCCC
# DNA 2: TGGTGGCTACGACGGGATT
# B16: ACCGAUC (DNA:RNA)
# RNA: B1 RNA with C25A, G27C, C30U
# DNA 1: CAATCTGAATTCCGGTCTCCC
# DNA 2: TGGTGGCTACGACGGGATT
# B17: GCUCGCG (DNA:RNA)
# RNA: B1 RNA with C25G, G27U, G28C, A29G, C31G
# DNA 1: CAATCTGAATTCCGGTCTCCC
# DNA 2: TGGTGGCTACGACGGGATT
# B18: CGUUAAU (DNA:RNA)
# RNA: B1 RNA with C26G, G27U, G28U, C30A, C31U
# DNA 1: CAATCTGAATTCCGGTCTCCC
# DNA 2: TGGTGGCTACGACGGGATT
# B19: CUACCAG (DNA:RNA)
# RNA: B4 RNA with A25C, C27A, A28C, U30A, A31G
# DNA 1: CAATCTGAATTCCGGTCTCCC
# DNA 2: TGGTGGCTACGACGGGATT
# B20: UUUAAGC (DNA:RNA)
# RNA: B4 RNA with A25U, C27U, C29A, U30G, A31C
# DNA 1: CAATCTGAATTCCGGTCTCCC
# DNA 2: TGGTGGCTACGACGGGATT
# B21: CUGUGGC (DNA:RNA)
# RNA: B1 RNA with C26U, G28U, A29G, C30G
# DNA 1: CAATCTGAATTCCGGTCTCCC
# DNA 2: TGGTGGCTACGACGGGATT
# B22: GGACAAC (DNA:RNA)
# RNA: B1 RNA with C25G, C26G, G27A, G28C, C30A
# DNA 1: CAATCTGAATTCCGGTCTCCC
# DNA 2: TGGTGGCTACGACGGGATT
# B23: GUGAUGA (DNA:RNA)
# RNA: B4 RNA with A25G, C27G, C29U, U30G
# DNA 1: CAATCTGAATTCCGGTCTCCC
# DNA 2: TGGTGGCTACGACGGGATT
# B24: CGUGUGA (DNA:RNA)
# RNA: B1 RNA with C26G, G27U, A29U, C30G, C31A
# DNA 1: CAATCTGAATTCCGGTCTCCC
# DNA 2: TGGTGGCTACGACGGGATT
# B25: CUGAUGC (DNA:RNA)
# RNA: B1 RNA with C26U, G28A, A29U, C30G
# DNA 1: CAATCTGAATTCCGGTCTCCC
# DNA 2: TGGTGGCTACGACGGGATT
# B26: GUGAUGG (DNA:RNA)
# RNA: B4 RNA with A25G, C27G, C29U, U30G, A31G
# DNA 1: CAATCTGAATTCCGGTCTCCC
# DNA 2: TGGTGGCTACGACGGGATT
# B27: CCCCUGG (DNA:RNA)
# RNA: B1 RNA with G27C, G28C, A29U, C30G, C31G
# DNA 1: CAATCTGAATTCCGGTCTCCC
# DNA 2: TGGTGGCTACGACGGGATT
# B28: AUCCGUA (DNA:RNA)
# RNA: B4 RNA with A28C, C29G
# DNA 1: CAATCTGAATTCCGGTCTCCC
# DNA 2: TGGTGGCTACGACGGGATT
# B29: CAAUAGC (DNA:RNA)
# RNA: B1 RNA with C26A, G27A, G28U, C30G
# DNA 1: CAATCTGAATTCCGGTCTCCC
# DNA 2: TGGTGGCTACGACGGGATT
# B30: ACGAAGG (DNA:RNA)
# RNA: B1 RNA with C25A, G28A, C30G, C31G
# DNA 1: CAATCTGAATTCCGGTCTCCC
# DNA 2: TGGTGGCTACGACGGGATT
# B31: CCGUUAA (DNA:RNA)
# RNA: B1 RNA with G28U, A29U, C30A, C31A
# DNA 1: CAATCTGAATTCCGGTCTCCC
# DNA 2: TGGTGGCTACGACGGGATT
# Molecular target: T1, RBFOX1 RRM RbFoxmut (Fox-RRM*) (Homo sapiens, UniProt Q9NWB1 109-208, R118D;E147R;N151S;E152T)
# T1 sequence: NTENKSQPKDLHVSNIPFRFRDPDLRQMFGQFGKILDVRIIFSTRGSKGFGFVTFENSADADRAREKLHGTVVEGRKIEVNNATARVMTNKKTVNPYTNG
# Experiment: EMSA; HiTS-Eq, 1 nM pool, 10 min; buffer printed only for the single-RNA assays: 10 mM Tris pH 7.5, 150 mM NaCl, 3.4 mM EDTA, 0.001% NP-40, 30 C
# Settings: tags: His6 N-terminal (pET28a); label: 5' 32P
# Procedure, shortened: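 Purified RbFox RRM (wild type or mutant) was equilibrated for 10 min in 50 µL with 1 nM of a 5′-radiolabelled pool of RNA with 7 randomized nucleotides, its flanks annealed to DNA oligonucleotides, across increasing protein concentrations. Free RNA was separated by 8% native PAGE, excised, reverse-transcribed, PCR-barcoded and sequenced on an Illumina HiSeq 2500. Relative association constants came from read-count changes of each variant against the control reaction, normalised to the cognate motif.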
row,Binder,binding signal
1,B1,0.0705 KA relative to UGCAUGU
2,B2,0.147 KA relative to UGCAUGU
3,B3,0.0661 KA relative to UGCAUGU
4,B4,0.109 KA relative to UGCAUGU
5,B5,0.0868 KA relative to UGCAUGU
6,B6,0.101 KA relative to UGCAUGU
7,B7,0.0803 KA relative to UGCAUGU
8,B8,0.0887 KA relative to UGCAUGU
9,B9,0.114 KA relative to UGCAUGU
10,B10,0.0976 KA relative to UGCAUGU
11,B11,0.0525 KA relative to UGCAUGU
12,B12,1.31 KA relative to UGCAUGU
13,B13,0.0864 KA relative to UGCAUGU
14,B14,0.106 KA relative to UGCAUGU
15,B15,0.163 KA relative to UGCAUGU
16,B16,0.0582 KA relative to UGCAUGU

row,Binder,binding signal
1,B17,0.109 KA relative to UGCAUGU
2,B18,0.0999 KA relative to UGCAUGU
3,B19,0.0672 KA relative to UGCAUGU
4,B20,0.103 KA relative to UGCAUGU
5,B21,0.102 KA relative to UGCAUGU
6,B22,0.0564 KA relative to UGCAUGU
7,B23,0.147 KA relative to UGCAUGU
8,B24,0.162 KA relative to UGCAUGU
9,B25,0.0932 KA relative to UGCAUGU
10,B26,0.114 KA relative to UGCAUGU
11,B27,0.0629 KA relative to UGCAUGU
12,B28,0.145 KA relative to UGCAUGU
13,B29,0.0872 KA relative to UGCAUGU
14,B30,0.08 KA relative to UGCAUGU
15,B31,0.0883 KA relative to UGCAUGU
